# Reference: PubChem BioAssay AID652104 (National Center for Advancing Translational Sciences (NCATS), 2013)
# Among all 410,000 compounds or so, about 7,200 (1.8%) were called active. This list was built around the results that the source calls inconclusive (neither active nor inactive); the mix of calls is not that of the screen. Calls come from the whole dose curve; as a rule, active = well fitted activation curve with a large enough effect; inconclusive = small, poorly fitted or top-dose-only effect, or another doubt; inactive = no such curve, though single readings can be large or run the other way. Potencies of inconclusive entries are left out as doubtful fits.
# Test: qHTS of TDP-43 Inhibitors; note: nearly all actives have a fitted effect of over 50% in size; for growth rescue (activation): % of control where 0% means no effect
# Settings: TDP-43 expressing yeast growth rescue, BacTiter-Glo, 24 h; growth rescue (activation): at 46.1 µM (top of the series) unless noted
# Outline: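 Growth rescue of TDP-43-toxic yeast measured as ATP luminescence (BacTiter-Glo). Cells grown to mid-log in raffinose, induced in galactose at OD600=0.02, exposed to compound 24 hr at 30 deg C.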
# Potency is the fitted concentration of half-maximal effect; tags give direction and shape of the fitted curve.
Compound,Potency,growth rescue (activation)
CC(C)c1ccc(NC(=O)COc2ccccc2)cc1,active: 10 µM,–
Cc1ccc(OCCCOc2cccc3cccnc23)cc1C,"inconclusive [activator, full curve, poor fit]",–
Cc1cc(C)n(-c2ccc(C(=O)N3CCN(S(=O)(=O)c4ccc(C(C)C)cc4)CC3)cc2)n1,"inconclusive [activator, single point]",–
COC(=O)c1cnn(-c2ccc(C(=O)Nc3ccc(OC(F)(F)F)cc3)cc2)c1N,–,inactive: 12.1% [at 9.22 µM]
COc1ccccc1S(=O)(=O)Cc1ccc(C(=O)N2CCN(c3cccc(Cl)c3)CC2)o1,inactive,–
COc1ccc(/C=C/C(=O)c2ccc(OC)cc2OC)cc1,"inconclusive [activator, single point]",–
CC(C)(C)C(=O)C(Oc1cccc2nonc12)n1cncn1 (stereo unspecified),"inconclusive [activator, single point]",–
COCCCN1C(=O)C(CC(=O)NCC2CCCCC2)CC(C(=O)N2CCOCC2)=C1C (stereo unspecified),"inconclusive [activator, full curve, poor fit]",–
c1ccc(CNc2ncnc3c2cnn3-c2ccccc2)cc1,"inconclusive [activator, full curve]",–
Cc1cccc(N2CCN(CCCNC(=O)c3sc4ncccc4c3-n3cccc3)CC2C)c1 (stereo unspecified),inactive,–
CSc1ccc(/C=C/C(=O)OCC(=O)NC2CCCC2)cc1,active: 20 µM,–
Cc1ccc(COC(=O)c2nn(C)c(=O)c3ccccc23)cc1,inactive,–
CCn1ccc2cc(S(=O)(=O)N3CCC(C(=O)NCc4ccc(OC)cc4)CC3)ccc21,"inconclusive [activator, partial curve]",–
COc1c(S(=O)(=O)n2nc(C)cc2C)ccc(Cl)c1Cl,"inconclusive [activator, single point]",–
OCCCCC#Cc1c(-c2ccsc2)sc2ccccc12,active: 14.1 µM,–
C/C(=N\Nc1cccc(C(=O)O)c1)c1cc2ccccc2o1,"inconclusive [activator, single point]",–
O=C(c1ccco1)N1CCN(c2ccccc2F)CC1,inactive,–
Cc1nnc(SCCC(=O)Nc2nc(-c3ccccc3)ns2)s1,"inconclusive [activator, full curve, poor fit]",–
COC(=O)c1ccccc1NC(=O)COc1ccccc1[N+](=O)[O-],"inconclusive [activator, full curve, poor fit]",–
O=C(c1ccccc1Sc1ccc([N+](=O)[O-])cc1Cl)N1CCOCC1,"inconclusive [activator, single point]",–
O=c1cc(C(F)(F)F)[nH]c2c(C(F)(F)F)cccc12,–,inconclusive: -93.9% [activator]
C[C@H](NC(=O)c1nc[nH]c1C(=O)N(C)Cc1ccccc1)C(=O)OC(C)(C)C,"inconclusive [activator, partial curve]",–
Cc1ccc(-n2cc3ccc([N+](=O)[O-])cc3n2)cc1,active: 15.8 µM,–
c1ccc(CCc2nn3c(C4COc5ccccc5O4)nnc3s2)cc1 (stereo unspecified),"inconclusive [activator, single point]",–

Compound,Potency,growth rescue (activation)
Cc1c(Cl)cccc1NC(=S)NNc1ncc(C(F)(F)F)cc1Cl,"inconclusive [activator, single point]",–
Nc1cccc(C#Cc2ccc3c(c2)C(=O)/C(=C/c2ccsc2)O3)c1,"inconclusive [activator, single point]",–
CC(C)C(NC(=O)c1ccccc1)C(=O)OCC(=O)N1CCCCC1 (stereo unspecified),inactive,–
CCCCOC(=O)C1=C(C)N(C)C(=O)NC1c1cc2c(cc1Br)OCO2 (stereo unspecified),"inconclusive [activator, partial curve]",–
COc1ccc(-c2cnc3c(NC(C)=O)cc(-c4cc(F)ccc4OC)cn23)cc1OC,"inconclusive [activator, partial curve, poor fit]",–
CCOc1ccccc1C(=O)Nc1cc(Cl)ccc1O,active: 2.82 µM,–
CSc1ccc(C#N)cc1NC(=O)c1cccc(Cl)c1,"inconclusive [activator, full curve, poor fit]",–
COc1ccc(NC(=O)c2cc(F)cc(F)c2)cc1Cl,"inconclusive [activator, partial curve]",–
Nc1ccc(S(=O)(=O)N2CCC(Cc3ccccc3)CC2)cc1,"inconclusive [activator, single point]",–
O=c1c(N2CCN(c3cccc(Cl)c3)CC2)csc2ccccc12,inactive,–
CCOc1ccc(NC(=O)[C@H]2O[C@@H]3OC(C)(C)O[C@@H]3[C@H]3OC(C)(C)O[C@H]32)cc1,inactive,–
N#Cc1nc(COc2cccc(Cl)c2)oc1N1CCCC1,active: 14.1 µM,–
COC(=O)c1ccccc1OCCCCN1CC(C)OC(C)C1 (stereo unspecified),inactive,–
c1c[nH]c(CN2CCN(Cc3ncc[nH]3)CC2)n1,active: 3.98 µM,–
COc1cccc(C2=C(C(C)=O)Sc3nnc(C4CCCCC4)n3N2C(C)=O)c1,"inconclusive [activator, partial curve]",–
CC(=O)NC(=S)Nc1cccc([N+](=O)[O-])c1,"inconclusive [activator, partial curve]",–
Cc1cccc(N2CC(c3nc4ccccc4n3CCC3CCCCC3)CC2=O)c1 (stereo unspecified),"inconclusive [activator, single point]",–
O=C(Cc1ccc(NC(=O)C2CCCN(C(=O)C3CCCCC3)C2)cc1)Nc1cccc(C(=O)N2CCCCC2)c1 (stereo unspecified),"inconclusive [activator, partial curve]",–
O=C(COc1ccc([N+](=O)[O-])cc1)NCc1ccccc1,"inconclusive [activator, full curve, poor fit]",–
CCN(CC)Cc1c(O)ccc2c(C)c(CC(=O)OC)c(=O)oc12,"inconclusive [activator, partial curve]",–
O=Cc1ccc(-c2ccc([N+](=O)[O-])cc2Cl)o1,active: 11.2 µM,–
O=C(NNC1=NCCCCC1)c1ccccc1,"inconclusive [activator, single point]",–
CCOC(=O)c1noc2ncnc(N3CCN(c4cccc(Cl)c4)CC3)c12,"inconclusive [activator, partial curve]",–
O=C(CN1CCOCC1)N/N=C/C(Br)=C\c1ccccc1,"inconclusive [activator, partial curve]",–

Compound,Potency,growth rescue (activation)
COc1ccc(-c2cc(C(C)=O)c(C)n2CCC(=O)Nc2ccc(C)cc2Cl)cc1,inactive,–
Cc1nc2ccc(S(=O)(=O)NC(C(=O)N3CCN(c4ccc(Cl)cc4)CC3)C(C)C)cc2s1 (stereo unspecified),"inconclusive [activator, partial curve, poor fit]",–
COC(=O)c1ccccc1NC(=O)NCc1ccc2c(c1)OCO2,"inconclusive [activator, single point]",–
CCCCCSc1nnc2c(n1)OC(CC)Nc1ccc(Br)cc1-2 (stereo unspecified),inactive,–
O=C(c1ccccc1)N1N=C(C(F)(F)F)CC1(O)c1ccc(F)cc1 (stereo unspecified),"inconclusive [activator, single point]",–
COc1ccc(-c2cnc3c(NC=O)cc(-c4ccc(F)cc4)cn23)cc1OC,"inconclusive [activator, partial curve]",–
O=C(c1ccc(Cl)cc1)c1ccc(CN2C(=O)c3ccccc3C2=O)o1,active: 14.1 µM,–
COc1ccccc1NC(=O)CSc1nc2ccccc2c(=O)n1CCNC(C)=O,"inconclusive [activator, partial curve]",–
CC(C)c1ccc(Nc2ncnc3c2nc2n3CCCC2)cc1,active: 14.1 µM,–
Cc1cccc(-n2c(-c3csc4ccccc34)n[nH]c2=S)c1,"inconclusive [activator, single point]",–
Cn1cccc1C(=O)OCc1cc(Cl)cc2c1OCOC2,"inconclusive [activator, single point]",–
Cc1nn(-c2ccccc2)c(N)c1Sc1ccccc1[N+](=O)[O-],inactive,–
Cc1cc(NC(=O)c2ccc(-c3ccccc3F)o2)no1,"inconclusive [activator, partial curve]",–
Cc1cc(C)cc(-n2ccnc2SCC(=O)Nc2ccc(C)cc2C)c1,"inconclusive [activator, single point]",–
COc1ccc(-c2csc(C(O)(c3ccccc3)C(F)(F)F)n2)cn1 (stereo unspecified),inactive,–
COc1cccc(/C=N/n2c(COc3ccccc3)n[nH]c2=S)c1OC,"inconclusive [activator, partial curve, poor fit]",–
O=C(Nc1nnc(-c2ccc(F)cc2)o1)c1cccc([N+](=O)[O-])c1,active: 11.2 µM,–
CCn1cc(Cl)c(C(=O)Nc2cccc(C(F)(F)F)c2)n1,"inconclusive [activator, partial curve, poor fit]",–
O=C(Nc1ccccc1N1CCN(C(=O)c2ccccc2)CC1)c1cc(Br)ccc1Cl,"inconclusive [activator, single point]",–
COc1ccc(Nc2nc(NCC3CCCO3)c3ccccc3n2)c(OC)c1 (stereo unspecified),"inconclusive [activator, partial curve]",–
COc1ccccc1CNc1nc(NCCNC(C)=O)c2sccc2n1,–,inconclusive: 6.86% [activator]
CC(C)(C)NC(=O)NC(=O)COC(=O)Cc1ccc(Cl)cc1Cl,active: 35.5 µM,–
CCN1N=C(c2ccccc2)Cn2c1nc1ccccc12,inactive,–
